# Data from the supplement of paper PMC8728848.
# Some of the results follow.
# B1: Epa10 (protein)
# chain: MNEKIFRYLTLLFLFELARSLPVEDKLNIKKVFEKRAVDFTPFAHYPRPEGCSSPPNSVSVGLHMNLYNYPYLYVKPSTKGMFTNDTNSDADGETDGDSAGGIEGRAGQCWNPEYQDPNFPRFGYKQYGEFGASDNVNGDISWDHNEFTEGCKPVLAALPPGYNYPDEITFSNFTMVLSGYFKPKTSGVYKFELKADDFILFNFGAKNAFECCNREESIDNFGPYVAYAMWPNQADQELEVYLFEDSYYPLRLFYNNRDYHSKFKIGFYPPGQTTITFDFDGYLFMLDDTGNECRDSIRYRTVCDDKVVDDTTYSTRYSTSMVPGGGSDVITIYYIRMKCEEEDCLGQWDPINNVCYSPDDCADDGGYWNGQMCDQSCKLEGGIVNPDTGDCDKSCIESGGFLDENGNCDTTCRDDGGMLVEGQCDYQCKEAGGILVGDHCDTTCVDSGGKLNEDGTCDHSCRDQGGQLDENGECDTSCKDSGGMLIEGECDTSCKDEGGQLDDNNECINHCKDQGGIIDENGNCDTSCKDSGGKLDESGACDTSCRDDGGIIDENGNCNTTCRDDGGIIVGDHCDTSCRDAGGILIEDHCDTTCRDSGGKLNEDGTCDHSCRDQGGQLDENGKCDYSCKNGGGKLDEDGNCDMSCKENGGKLDENGDCDLSCKEDGGKLDGNGDCDYSCKEEGGVIDESGNCNTTCKDSGGQIIDGECNYGCIEVGGVVIDGECDTSCIDSGGILDGDGNCDRSCIESGGVLEDGACNTTCRDSGGQLNVDGTCDTSCRDDGGMLVEGQCDYQCKEAGGILEDGECVFPPTSSSTSETSSTTDQSSLQSDDSSMESSSTPMDSSTIESSSSEIITSESESESVPIASSSSEVMTSESESESIPILTSSSEIPIASSSSEIPVASSSSEIIIPESESESVPVASSSSEIPIASSSSEIPVASSSSEIPVASSSSEIIIPESESESIPIESTSSEAVSSRSESDSSYPTPTPTTTTITTWPNPIQPTTSNSSPIVSSSTETPGIAESSSRISDLESSRRTSILGDDRTRTRTTITSTITEDGQIITITTTVTGFVPEPTGETEGNGSDDENPENPIENNTDENEFLDPEFTDDIPDDPAGPEDNGNGPVNPEQGNDNDPVNLEDSGNNGAVNPEQAPVNDEDNGGNDPVNPEQDNNNGPANPGQDSTNGSGNSDQIDNNPPTPEENAGDGNSNGNDPADPSRRTSILGDERTRASPGGTSQPTGANGNVNGNSPGANVNGGGTGNSNNNNNNNNNNNNGNAPNGGDGSNGDANQGPSRRTSLLGDERTRAGQAAPTGGSSPDNGIAGDTSNNGGAIVSQQVDDGGAGSPRRTSILGDVRSRTTLNGEVLNFEGSGVRRAVAGNLALPLMMVGLVFNL
# Columns and labels:
# Experiment in all cases: glycan array binding signal (z-score within array); higher = stronger binding
# Settings in all cases: glycan notation: IUPAC condensed, linker removed
# Neu5Ac(a2-8)Neu5Ac = target: Neu5Ac(a2-8)Neu5Ac
# In short: (§1)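 The binding signal is a Z-score computed within each array. Data were drawn from 3228 arrays in the Consortium for Functional Glycomics database, restricted to those with a known protein sequence. Scores were averaged over arrays of the same protein sequence at different concentrations or buffers, and over linkers, and negative values can be taken as non-binding.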
# [1] = target: Neu5Ac(a2-8)Neu5Ac(a2-3)Gal(b1-3)GalNAc(b1-4)[Neu5Ac(a2-3)]Gal(b1-4)Glc
# In short: as §1
# [2] = target: Neu5Ac(a2-8)Neu5Ac(a2-3)Gal(b1-3)GalNAc(b1-4)[Neu5Ac(a2-8)Neu5Ac(a2-3)]Gal(b1-4)Glc
# In short: as §1
# [3] = target: Neu5Ac(a2-8)Neu5Ac(a2-3)Gal(b1-4)Glc
# In short: as §1
# [4] = target: Neu5Ac(a2-8)Neu5Ac(a2-3)Gal(b1-4)GlcNAc
# In short: as §1
# [5] = target: Neu5Ac(a2-8)Neu5Ac(a2-3)[Gal(b1-3)GalNAc(b1-4)]Gal(b1-4)Glc
# In short: as §1
# [6] = target: Neu5Ac(a2-8)Neu5Ac(a2-3)[GalNAc(b1-4)]Gal(b1-4)Glc
# In short: as §1
# [7] = target: Neu5Ac(a2-8)Neu5Ac(a2-8)Neu5Ac
# In short: as §1
# [8] = target: Neu5Ac(a2-8)Neu5Ac(a2-8)Neu5Ac(a2-3)Gal(b1-4)Glc
# In short: as §1
# [9] = target: Neu5Ac(a2-8)Neu5Ac(a2-8)Neu5Ac(a2-3)[Gal(b1-3)GalNAc(b1-4)]Gal(b1-4)Glc
# In short: as §1
# [10] = target: Neu5Ac(a2-8)Neu5Ac(a2-8)Neu5Ac(a2-3)[GalNAc(b1-4)]Gal(b1-4)Glc
# In short: as §1
# [11] = target: Neu5Ac(a2-8)Neu5Ac(a2-8)Neu5Ac(a2-8)Neu5Ac(a2-3)[GalNAc(b1-4)]Gal(b1-4)Glc
# In short: as §1
# [12] = target: Neu5Ac(a2-8)Neu5Gc(a2-3)Gal(b1-4)GlcNAc
# In short: as §1
# [13] = target: Neu5Ac(b2-6)Gal(b1-4)GlcNAc
# In short: as §1
# Neu5Ac(b2-6)GalNAc = target: Neu5Ac(b2-6)GalNAc
# In short: as §1
# [14] = target: Neu5Ac9Ac(a2-3)Gal(b1-3)GlcNAc
# In short: as §1
# [15] = target: Neu5Ac9Ac(a2-3)Gal(b1-4)GlcNAc
# In short: as §1
# [16] = target: Neu5Ac9Ac(a2-6)Gal(b1-4)GlcNAc
# In short: as §1
# [17] = target: Neu5Gc(a2-3)Gal(b1-3)GlcNAc
# In short: as §1
# [18] = target: Neu5Gc(a2-3)Gal(b1-3)[Fuc(a1-4)]GlcNAc
# In short: as §1
# Neu5Gc(a2-3)Gal(b1-4)Glc = target: Neu5Gc(a2-3)Gal(b1-4)Glc
# In short: as §1
# [19] = target: Neu5Gc(a2-3)Gal(b1-4)GlcNAc
# In short: as §1
# [20] = target: Neu5Gc(a2-3)Gal(b1-4)GlcNAc(b1-3)Gal(b1-4)GlcNAc(b1-2)Man(a1-3)[Neu5Gc(a2-3)Gal(b1-4)GlcNAc(b1-3)Gal(b1-4)GlcNAc(b1-2)Man(a1-6)]Man(b1-4)GlcNAc(b1-4)GlcNAc
# In short: as §1
# [21] = target: Neu5Gc(a2-3)Gal(b1-4)[Fuc(a1-3)]GlcNAc
# In short: as §1
# [22] = target: Neu5Gc(a2-6)Gal(b1-4)GlcNAc
# In short: as §1
# Neu5Gc(a2-6)GalNAc = target: Neu5Gc(a2-6)GalNAc
# In short: as §1
# [23] = target: Neu5Gc(a2-8)Neu5Ac(a2-3)Gal(b1-4)GlcNAc
# In short: as §1
# [24] = target: Neu5Gc(a2-8)Neu5Gc(a2-3)Gal(b1-4)GlcNAc
# In short: as §1
# [25] = target: Neu5Gc(a2-8)Neu5Gc(a2-3)Gal(b1-4)GlcNAc(b1-3)Gal(b1-4)GlcNAc
# In short: as §1
# [26] = target: Neu5Gc(a2-8)Neu5Gc(a2-6)Gal(b1-4)GlcNAc
# In short: as §1
# [27] = target: Neu5Gc(b2-6)Gal(b1-4)GlcNAc
# In short: as §1
binder,measurement,setting,value
B1,glycan array binding signal (z-score),Neu5Ac(a2-8)Neu5Ac,-0.236
same,glycan array binding signal (z-score),[1],-0.151
same,glycan array binding signal (z-score),[2],-0.233
same,glycan array binding signal (z-score),[3],-0.282
same,glycan array binding signal (z-score),[4],-0.203
same,glycan array binding signal (z-score),[5],2.56
same,glycan array binding signal (z-score),[6],-0.27
same,glycan array binding signal (z-score),[7],-0.274
same,glycan array binding signal (z-score),[8],-0.31
same,glycan array binding signal (z-score),[9],-0.226
same,glycan array binding signal (z-score),[10],-0.322
same,glycan array binding signal (z-score),[11],-0.292
same,glycan array binding signal (z-score),[12],-0.257
same,glycan array binding signal (z-score),[13],-0.294
same,glycan array binding signal (z-score),Neu5Ac(b2-6)GalNAc,-0.257
same,glycan array binding signal (z-score),[14],-0.254
same,glycan array binding signal (z-score),[15],-0.271
same,glycan array binding signal (z-score),[16],-0.297
same,glycan array binding signal (z-score),[17],-0.25
same,glycan array binding signal (z-score),[18],-0.222
same,glycan array binding signal (z-score),Neu5Gc(a2-3)Gal(b1-4)Glc,-0.177
same,glycan array binding signal (z-score),[19],-0.269
same,glycan array binding signal (z-score),[20],-0.292
same,glycan array binding signal (z-score),[21],-0.161
same,glycan array binding signal (z-score),[22],-0.302
same,glycan array binding signal (z-score),Neu5Gc(a2-6)GalNAc,-0.24
same,glycan array binding signal (z-score),[23],-0.315
same,glycan array binding signal (z-score),[24],-0.283
same,glycan array binding signal (z-score),[25],-0.156
same,glycan array binding signal (z-score),[26],-0.289
same,glycan array binding signal (z-score),[27],-0.217
